# In PMC4336329 (PLoS ONE, 2015):
# In all, about 310,000 compounds went through this assay and about 2,200 (0.71%) showed an effect of 50% or more. The effect is printed as a negative number. Some of the results follow.
# Molecular target: human ether-à-go-go-related gene (hERG) potassium channel (human, UniProt Q12809)
# Assay: primary screen, population patch clamp on CHO cells stably expressing hERG
# human ether-à-go-go-related gene (hERG) potassium channel, sequence (Q12809 whole entry, looked up): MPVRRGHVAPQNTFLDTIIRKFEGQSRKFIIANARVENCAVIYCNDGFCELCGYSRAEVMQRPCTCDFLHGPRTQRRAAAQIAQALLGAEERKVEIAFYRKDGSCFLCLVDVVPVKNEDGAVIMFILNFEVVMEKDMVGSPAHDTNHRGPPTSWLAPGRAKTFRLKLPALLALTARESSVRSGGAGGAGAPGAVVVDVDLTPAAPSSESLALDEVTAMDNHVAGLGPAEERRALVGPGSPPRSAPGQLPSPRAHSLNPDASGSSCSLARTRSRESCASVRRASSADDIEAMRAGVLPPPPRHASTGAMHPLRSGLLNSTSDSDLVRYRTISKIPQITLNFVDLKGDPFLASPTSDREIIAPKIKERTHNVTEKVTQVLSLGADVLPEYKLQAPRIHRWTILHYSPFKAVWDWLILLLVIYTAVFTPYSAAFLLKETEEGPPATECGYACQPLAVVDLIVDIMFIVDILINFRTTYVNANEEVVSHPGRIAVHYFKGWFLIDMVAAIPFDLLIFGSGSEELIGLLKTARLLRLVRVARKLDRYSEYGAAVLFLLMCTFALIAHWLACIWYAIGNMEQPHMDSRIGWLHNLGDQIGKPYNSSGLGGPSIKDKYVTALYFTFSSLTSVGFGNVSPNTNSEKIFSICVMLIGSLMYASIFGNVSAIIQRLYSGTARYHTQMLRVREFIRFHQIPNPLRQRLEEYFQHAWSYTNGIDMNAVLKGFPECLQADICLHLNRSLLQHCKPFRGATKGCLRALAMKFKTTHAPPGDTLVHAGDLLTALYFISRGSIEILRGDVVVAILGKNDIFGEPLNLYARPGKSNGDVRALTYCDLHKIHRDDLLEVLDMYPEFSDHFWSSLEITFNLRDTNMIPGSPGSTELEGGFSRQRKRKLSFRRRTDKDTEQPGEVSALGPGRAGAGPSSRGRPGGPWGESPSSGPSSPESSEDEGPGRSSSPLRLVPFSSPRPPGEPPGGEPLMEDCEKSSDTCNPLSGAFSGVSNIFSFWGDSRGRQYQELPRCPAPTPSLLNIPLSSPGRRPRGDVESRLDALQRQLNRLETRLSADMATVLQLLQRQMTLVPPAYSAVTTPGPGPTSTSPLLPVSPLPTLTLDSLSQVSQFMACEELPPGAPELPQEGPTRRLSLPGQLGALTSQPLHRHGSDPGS
row,SMILES,"hERG current change (%, negative = inhibition) at 1uM [%]"
1,CCn1c(COC(=O)CNC(=O)c2ccccc2)nc2cc(S(=O)(=O)N(C)C)ccc21,10.2
2,COc1ccc(-c2n[nH]c(=S)n2CC(C)C)cc1,6.26
3,Nn1c(Nc2ccccc2)nc2ccccc21,7.31
4,CCCCOC(=O)Nc1nc2ccc(OC)cc2s1,12.6
5,CCOP(=S)(OCC)SCOC(=O)NCC(=O)OC,12.7
6,CC(C)Nc1nnc(SCC(=O)Nc2sccc2C#N)s1,5.02
7,Cc1ccc(Nc2nc3nonc3[nH]c2=O)cc1C,7.21
8,COc1ccc(C(=O)n2c(N)nc3ccccc32)cc1OC.Cl,21.9
9,CN(C)S(=O)(=O)c1ccc(C(=O)NCCc2ccco2)cc1,11
10,COc1ccc(OC)c(S(=O)(=O)N2CCC(C(=O)Nc3cc(C)ccc3C)CC2)c1,8.13
11,CC(=O)Nc1ccc(-c2sc(Nc3cccc4ccccc34)n[n+]2-c2ccccc2)cc1.[Cl-],10.1
12,O=c1[nH]c(=O)n(C2CCCCC2)c(O)c1C1NCCc2ccccc21 (stereo not drawn),16.8
13,Cc1ccccc1-c1nc(CS(=O)(=O)CC(=O)NCc2ccco2)c(C)o1,-9.71
14,O=C(NCCOc1ccccc1)c1ccccc1Cl,0.854
15,O=C(NCCOC(=O)c1cccs1)c1cccnc1,8.72
16,CC(C)(CNC(=O)Cc1ccc(Cl)cc1Cl)N1CCCCC1,17.9
17,FC(F)(F)c1ccccc1NC(=S)N1CCN(Cc2ccc3c(c2)OCO3)CC1,6.32
18,O=C(NCCc1ccc(Cl)cc1)Nc1cccc(Cl)c1,9.78
19,CN1CCN(c2ccc(C(=O)c3ccc(Br)cc3)cc2[N+](=O)[O-])CC1,-19.3

row,SMILES,"hERG current change (%, negative = inhibition) at 1uM [%]"
1,O=C(c1cc2cc(Br)ccc2[nH]1)N1CCC2(CC1)OCCO2,11.7
2,COc1cccc(-c2nnc(NC(=O)c3ccccc3Br)o2)c1,2.44
3,COCCn1c(=O)[nH]c2cc(C(=O)NCCc3ccc(OC)c(OC)c3)ccc2c1=O,11.3
4,CC(=O)Nc1ccccc1C(=O)C(=O)Nc1cccc(F)c1,3.64
5,Cc1nc(Nc2ccc(Cl)c(Cl)c2)sc1C(=O)Nc1ccccc1,4.02
6,CC(c1ccco1)N(Cc1ccco1)C(=O)Nc1ccccc1 (stereo not drawn),17.9
7,Clc1ccc(-c2noc(CSc3nnc(-c4ccncc4)n3-c3ccccc3)n2)cc1,-4.52
8,CCC1CCCCN1CC(O)COCc1cccc(OC)c1 (stereo not drawn),11.4
9,O=C(COC(=O)COc1cccc(Br)c1)Nc1c(Cl)cccc1Cl,2.4
10,CN(C)c1ccc(C(CNS(=O)(=O)c2ccc(F)c(F)c2)c2c[nH]c3ccccc23)cc1 (stereo not drawn),8.31
11,COC(=O)C1=C(c2cccc(OC)c2OC)C[C@@H]2CC[C@H]1N2C(=O)NCCS(C)=O (stereo partly drawn),8.02
12,COc1ccccc1N=c1oc2cc(O)ccc2cc1C(N)=O,1.32
13,O=C(CCc1nnc2ccc(NCc3ccc(Cl)cc3)nn12)NC1CCCCC1,4.16
14,O=C(/C=C/c1cc([N+](=O)[O-])ccc1OC(F)F)NCc1ccc(F)cc1,-2.89
15,CCOc1ccc(CC(=O)Nc2cc(=O)n(C)c(=O)n2C)cc1,18.2
16,O=C(Nc1cc(Cl)cc(Cl)c1)C1CCC(=O)N1Cc1ccccc1Cl (stereo not drawn),10.4
17,Cc1cc(=O)oc2cc(OCC(=O)Nc3nnc(C(C)C)s3)ccc12,18
18,COc1cc2cc(C(c3nnnn3C(C)(C)C)N3CCC(C)CC3)c(=O)[nH]c2cc1OC (stereo not drawn),-1.68
19,Cc1ccc(CN(c2ccc(C(=O)N3CCc4ccccc4C3)cc2)S(C)(=O)=O)cc1,6.97

row,SMILES,"hERG current change (%, negative = inhibition) at 1uM [%]"
1,C/C=C/C=C\C(=O)Nc1cccc(C2=NOC3(C2)C[C@H](C(N)=O)N(C(=O)CC#N)C3)c1 (stereo partly drawn),3.43
2,Cc1nn(CC(=O)NCCCN2CCN(C)CC2)c(=O)c2cc(-c3ccccc3)nn12,12.5
3,CCNc1ccccc1C(=O)O,5.34
4,CC(C)N(CCNC(=O)c1ccc(CS(=O)(=O)c2c(Cl)cccc2Cl)o1)Cc1ccccc1,-3.94
5,CCC(Cc1ccccc1)NC(=O)CCc1ccccc1 (stereo not drawn),12.9
6,S=c1[nH]c2ccccc2c2ccccc12,15.2
7,COc1ccc(/C=C/C(=O)Nc2ccc3c(c2)CCC3)cc1OC,7.46
8,CCOc1ccc(C(=O)NC(=S)NCCCN2CCOCC2)cc1,-26.5
9,COC(=O)C1=C(O)/C(=C\c2ccc(OCC(=O)Nc3ccccc3)cc2)N=C1C,8.73
10,COc1ccc(OC)c(CN2CCCC(C(=O)c3sccc3C)C2)c1 (stereo not drawn),-33
11,CCOc1ccc(Nc2cc(C)nc3c(C)cccc23)cc1,-14.9
12,CN(C)CCNC(=O)c1ccccc1,-1.61
13,Cc1ccc(CNC(=O)C2CCN(S(=O)(=O)c3cccs3)CC2)cc1,11.9
14,CSc1ccc(C(=O)C2CCCN(C(=O)CCc3cnn(C)c3)C2)cc1 (stereo not drawn),3.11
15,CCOC(=O)C(NC(C)=O)(Nc1ccc(S(=O)(=O)Nc2cc(C)nc(C)n2)cc1)C(F)(F)F (stereo not drawn),12.5
16,Cc1c(C(=O)OCC(=O)N(C)CC(=O)Nc2ccc(F)cc2)oc2ccccc12,11.7
17,c1ccc(Cn2nnc3c(N4CCc5ccccc5C4)ncnc32)cc1,1.44
18,Cc1ccccc1OCc1nnc(SCC(=O)O)n1-c1cccc(Cl)c1,11.1
19,CCCc1cc(=O)oc2cc(C)cc(OC(C)C(=O)NCC3CCC(C(=O)O)CC3)c12 (stereo not drawn),7.86
